# Experimental data taken from PubChem BioAssay AID1963576 (National Center for Advancing Translational Sciences (NCATS), 2024).
# Out of some 46,000 compounds screened, about 60 (0.1%) were called active. The shares of active, inactive and inconclusive entries below differ from those in the screen. Calls follow the shape of the dose curve; as a rule, active = well fitted inhibition curve with a large enough effect; inconclusive = small, poorly fitted or top-dose-only effect; inactive = no such curve, though single readings can be large or run the other way. Potencies of inconclusive entries are left out as doubtful fits.
# Assay: Primary qHTS assay for Inhibitors of ovarian cancer metastasis using an organotypic tumor microenvironment (TME) model. Also: nearly all actives have a fitted effect of over 65% in size.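 As to Potency: count of GFP cancer cells still attached after washing and fixation.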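 As to activity change, negative = inhibition: plate controls were DMSO wells for no effect and tomatine positive control wells for full effect.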
# Conditions: SKOV3ip1-GFP adhesion/invasion on 3D omental model, fluorescence; activity change, negative = inhibition: at 45.8 µM (top of the series); series mostly up to 45.8 µM
# In short: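 A 3D layer of primary human omental fibroblasts, mesothelial cells, fibronectin and collagen I, grown 48 hr, received SKOV3ip1-GFP cells in serum-free medium plus compounds at 0.36-46 umol/L. After 2 hr RT and 16 hr 37 C, fixed adherent GFP cells were counted; normalized to DMSO and tomatine.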
# Potency is read from the fitted curve at half-maximal effect; tags tell the direction and shape of the fitted curve.
SMILES,Potency,"activity change, negative = inhibition",outcome
Cc1nn(-c2ccc(Cl)cc2)c2nc(-c3cccnc3)cc(C(F)(F)F)c12,"inconclusive [inhibitor, single point]",,
CCn1cc(S(=O)(=O)c2cccc(Cl)c2)c(=O)c2cc(F)c(N3CCN(C)CC3)cc21,"inconclusive [inhibitor, single point]",,
Cc1ccccc1OCCCCn1c(CCNC(=O)C(C)(C)C)nc2ccccc21,"inconclusive [inhibitor, single point]",,
CC1CCN(C(=O)c2cc(-c3ccc(Cl)cc3)on2)CC1,,inactive: -4.08%,
COc1cc(Cl)c(C)cc1NC(=O)CN1c2ccccc2S(=O)(=O)c2ccccc21,"inconclusive [inhibitor, partial curve, poor fit]",,
CC(C)OCCCN1C(=O)c2[nH]nc(-c3ccccc3O)c2C1c1ccc(OCc2ccccc2)cc1 (stereo not given),"inconclusive [inhibitor, partial curve, poor fit]",,
COc1ccc2c(Sc3ccc(Cl)cc3)c(C(=O)NCCCN3CCCCC3)[nH]c2c1,"inconclusive [inhibitor, single point]",,
CCOC(=O)c1c(C)oc2c(Cl)cc(NS(=O)(=O)c3ccc(Cl)c(C)c3)cc12,"inconclusive [inhibitor, single point]",,
Cc1ccc(CSc2nc3ccc(NC(=O)COc4ccccc4F)cc3s2)cc1,"inconclusive [inhibitor, single point]",,
CCN(CC)CCCNC(=O)Cn1c(-c2cccs2)cc2cc(Cl)ccc21,"inconclusive [inhibitor, single point]",,
CCN1CCN(C(c2ccccc2F)c2c(O)cc(C)n(CCOC)c2=O)CC1 (stereo not given),"inconclusive [inhibitor, partial curve]",,
CCN(CCCNC(=O)c1cc2cc3ccc(OC)cc3nc2s1)c1cccc(C)c1,,inactive: -16.7%,
CCCN1C(=O)c2[nH]nc(-c3cccc(OC)c3)c2C1c1ccccn1 (stereo not given),"inconclusive [inhibitor, single point]",,
CCOc1ccc(CCNC(=O)c2cn(-c3cccc(OC)c3)c(=O)c3ccccc23)cc1,"inconclusive [inhibitor, single point]",,
O=C(c1noc2c1CCCCC2)N1CCN(c2cccc(C(F)(F)F)c2)CC1,"inconclusive [inhibitor, full curve, poor fit]",,
CCCCN(CC)CCCNC(=O)Cn1ncc2c3ccccc3n(Cc3ccccc3F)c2c1=O,"inconclusive [inhibitor, single point]",,
Cc1cccc(-c2nc3scc(CCNS(=O)(=O)c4c(C)noc4C)n3n2)c1,"inconclusive [inhibitor, single point]",,
O=C(NCCn1cc(SCc2ccccc2Cl)c2ccccc21)c1cccs1,"inconclusive [inhibitor, single point]",,

SMILES,Potency,"activity change, negative = inhibition",outcome
COc1ccc(-c2cc(C(F)(F)F)nc(S(C)(=O)=O)n2)cc1,"inconclusive [inhibitor, partial curve, poor fit]",,
O=C(Nc1ccc(F)c(F)c1)c1cc(S(=O)(=O)NC2CCCCCC2)ccc1F,"inconclusive [inhibitor, single point]",,
COc1ccc(CNC(=O)CN2C(=O)COc3ccc(S(=O)(=O)Nc4ccccc4)cc32)cc1,"inconclusive [inhibitor, partial curve, poor fit]",,
CCN(CC)CC(C)CNC(=O)c1cc(-c2ccc(Br)s2)nc2ccccc12 (stereo not given),"inconclusive [inhibitor, single point]",,
COc1cccc(-n2cc(C(=O)NCCc3ccc(C)cc3)c3ccccc3c2=O)c1,"inconclusive [inhibitor, partial curve, poor fit]",,
CCCCN(CC)C(=O)c1cc2c(=O)n3cccc(C)c3nc2n1C,,inactive: 13.4%,
COc1cccc(CSc2nc3n(n2)C(CC(C)C)C(C(=O)Nc2ccccc2OC)=C(C)N3)c1 (stereo not given),"inconclusive [inhibitor, single point]",,
CCOCCCN1C(=O)c2[nH]nc(-c3ccccc3O)c2C1c1ccc(CC)cc1 (stereo not given),"inconclusive [inhibitor, partial curve, poor fit]",,
CC(=O)Nc1cccc(NC(=O)CN2C(=O)CCSc3ccccc32)c1,"inconclusive [inhibitor, single point]",,
CCC1CN(C(=O)N2CCC(C(=O)N3CCN(c4cccc(C)c4C)CC3)CC2)c2ccccc2O1 (stereo not given),,,inactive
CCc1ccc(NC(=O)CN2CCCN(Cc3cccc(Cl)c3)S2(=O)=O)cc1,"inconclusive [inhibitor, full curve, poor fit]",,
CC[C@]1(O)C[C@@H]2CN(CCc3c([nH]c4ccccc34)[C@@](C(=O)OC)(c3cc4c(cc3OC)N(C=O)[C@@H]3C45CCN4CC=C[C@](CC)([C@H]45)[C@@H](OC(C)=O)[C@]3(O)C(=O)OC)C2)C1 (stereo not given in full),,inactive: -25.8%,
COc1ccc(C(CC(=O)Nc2ccc(F)c(Cl)c2)N2Cc3ccccc3C2=O)cc1OC (stereo not given),,inactive: 7.05%,
O=C(CSc1c2c(nc3ccc(Cl)cc13)CCCC2)N1CCCCC1,"inconclusive [inhibitor, single point]",,
C=Cc1ccc(Cn2c(C(=O)O)c(CNCc3cc(OC)ccc3OC)c3ccc(C)cc32)cc1,"inconclusive [inhibitor, single point]",,
CCN(c1cccc(C)c1)C(CNS(=O)(=O)c1ccccc1)c1ccccc1 (stereo not given),"inconclusive [inhibitor, single point]",,
CC(C)(C)C(=O)Nc1ccc(Cl)c(-c2nc3ccccc3[nH]2)c1,,inactive: -3.5%,
